Measured values published in PubChem BioAssay AID588855 (National Center for Advancing Translational Sciences (NCATS), 2011).
The whole screen tested about 410,000 compounds, of which about 5,000 (1.2%) were called active. Inconclusive means that the source gave no clear call. Such entries were picked first, then a sample of the others. Calls come from the whole dose curve; as a rule, active = well fitted inhibition curve with a large enough effect; inconclusive = small, poorly fitted or top-dose-only effect; inactive = no such curve, though single readings can be large or run the other way. Potencies of inconclusive entries are doubtful fits and often do not repeat.

Assay: qHTS for Inhibitors of TGF-b; note: nearly all actives have a fitted effect of over 65% in size
Settings: HepG2 CAGA-GFP TGF-b/SMAD3 reporter, GFP fluorescence, 18 h, TGF-beta stimulated, 500 pg/mL final; series mostly up to 46.1 µM
Outline: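 Using HEPG2 CAGA-GFP reporter cells at 1000 cells/well, we pinned test compounds, stimulated with recombinant TGF-beta (500 pg/mL final) and measured total well GFP after 18 h.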
Potency is the fitted concentration of half-maximal effect; tags give direction and shape of the fitted curve.

SMILES | Potency
Cc1nnc(SCC(=O)Nc2cc(-c3cc(C)c(C)cc3C)nn2-c2ccccc2)s1 | inconclusive: 12.6 µM [inhibitor, single point]
O=C(Nc1cc(Oc2ccc(Cl)cc2)cc([N+](=O)[O-])c1)c1ccco1 | inconclusive: 28.2 µM [inhibitor, partial curve, poor fit]
CCc1ccc(NC(=O)c2ccc3c(c2)nnn3CC)cc1 | inactive
Cc1ccc([N+](=O)[O-])cc1N=C1C(=O)Nc2ccccc21 | inactive
COc1ccc(-c2nn(C)c3sc(C(=O)Nc4cccc(F)c4)cc23)cc1OC | inactive
Cc1c(Cl)cccc1-n1ncc(C(=O)Nc2ccc3c(c2)OCCO3)c1C1CCN(C(=O)OC(C)(C)C)CC1 | inconclusive: 10 µM [inhibitor, partial curve]
CC(C)COP(=O)(OCC(C)C)C(Nc1ccccc1)c1ccc(F)cc1 (centres undefined) | inconclusive: 35.5 µM [inhibitor, single point]
CCC(CC)c1nnc(NC(=O)c2cccc(S(=O)(=O)N3CCc4ccccc43)c2)s1 | inconclusive: 15.8 µM [inhibitor, single point]
CCCNC(=O)c1cc(-c2ccc(Br)cc2)on1 | inconclusive: 0.708 µM [inhibitor, full curve, poor fit]
Cc1cc2oc(=O)cc(-c3ccccc3)c2c(C)c1-c1ccc(O)cc1 | inconclusive: 28.2 µM [inhibitor, single point]
Cc1[nH]c2ccccc2c1C(=O)COc1ccccc1 | inactive
CCC1CN(C(=O)N2CCC(C(=O)NCc3ccc(OC)cc3OC)CC2)c2cc(C)ccc2O1 (centres undefined) | inconclusive: 6.31 µM [inhibitor, single point]
Cc1ccc(NC(=O)c2ccc(NCCCN3CCC(C)CC3)c([N+](=O)[O-])c2)c(C)c1 | inconclusive: 35.5 µM [inhibitor, single point]
O=C(CC(Nc1ccccc1)C(=O)O)c1ccccc1 (centres undefined) | inactive
Cc1[nH]c2ccccc2c1C(=O)CN1C(=O)C(=O)N(Cc2ccco2)C1=O | inactive
COc1ccc2cc(C(=O)NCc3ccco3)c(=Nc3ccc(C(=O)O)cc3)oc2c1 | inactive
Cc1ccc(OCc2nnc(SCC(=O)N3c4ccccc4Sc4ccc(Cl)cc43)o2)cc1 | inconclusive: 3.55 µM [inhibitor, partial curve, poor fit]
Cc1ccc(C2Nc3ccccc3-n3c(-c4ccccc4)c4c(=O)n(C)c(=O)n(C)c4c32)o1 (centres undefined) | inconclusive: 22.4 µM [inhibitor, partial curve, poor fit]
Cc1ccc(-n2nc3c(N4CCC(C(=O)NC(C)C)CC4)nnc(C)c3c2C)cc1 | inconclusive: 0.562 µM [inhibitor, full curve, poor fit]
